In the supplement of paper PMC3724861:
The list shows a part of the results.

system: T1, Caupolican (Caup) homeodomain DNA-binding domain; experiment: PBM E-score (8-mer, recovered from the published 9-mer minima) (E-score (dimensionless, -0.5 to 0.5)); Drosophila protein; higher = stronger relative binding preference, active = 0.31 or more
T1 sequence: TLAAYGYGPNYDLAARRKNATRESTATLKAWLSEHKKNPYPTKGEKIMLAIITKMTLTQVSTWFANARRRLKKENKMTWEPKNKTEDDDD
Outline: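 Caup's homeodomain DNA-binding domain (residues 214-303) was produced by in vitro transcription and translation and applied at 100 nM to custom-designed protein binding microarrays. Each value is an enrichment score giving relative binding preference for a short DNA word; higher means stronger. Published 9-mer scores were the minimum of their two constituent 8-mer scores, and the 8-mer values were recovered from those minima. A cutoff of 0.31 marks candidate binding sequences.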

Sequence | PBM E-score
ACCGGAGA | ≥ -0.0601
GGTCCCTA | inactive: -0.114
CGATATAC | inactive: 0.0606
AACCCGAG | inactive: -0.0937
CGTAGAGA | inactive: -0.0673
CTCGCCGC | inactive: -0.154
GGAAGCCC | inactive: -0.265
ATCCAGGC | inactive: -0.165
CTCTAGCC | inactive: -0.102
CCGAAGAC | inactive: -0.107
CGCGTTGA | inactive: -0.0594
ACAATTCT | inactive: 0.142
GCTGTAGA | inactive: 0.0556
AAGTGCTC | inactive: -0.121
CTCAGTGA | inactive: -0.051
ATGTGAAA | inactive: 0.0895
ACCACCAA | inactive: -0.00096
CAGTAGTA | inactive: 0.175
TCGCATCA | inactive: -0.0286
GAGTATCA | inactive: 0.0538
ATGATCAG | inactive: 0.0578
GGGATCTA | inactive: -0.0922
GGGTTCAC | inactive: -0.1
CATAGACC | inactive: -0.06
GAGTATCC | inactive: -0.0506

Sequence | PBM E-score
ATGCTGTA | inactive: 0.201
CAGCCCTA | inactive: -0.0527
AATATATA | inactive: 0.253
ATTTGTAA | inactive: 0.277
ATAGCCGA | ≥ 0.0053
TCGTCCCA | inactive: 0.00693
AACGCAGT | inactive: -0.0614
CTAACAGC | inactive: 0.0198
GAACCTTA | inactive: -0.108
ATTTCGTG | inactive: 0.141
AGGACCCG | inactive: -0.197
ATGGTTGG | inactive: -0.0636
AGTAATGG | inactive: 0.0896
GGGGAGGA | inactive: -0.324
AGCTTCCT | inactive: -0.0709
AATCGGAA | inactive: 0.0527
AAAACCGT | ≥ 0.0731
GCAGGGAA | inactive: -0.0579
CTTGTAAA | active: 0.365
CGCCAACA | inactive: 0.00728
CTTCTACA | inactive: 0.198
CCGTCCGC | inactive: -0.209
GATGAGAA | inactive: 0.0364
CAGGGTGC | inactive: -0.238
AAGCAACA | inactive: 0.217

Sequence | PBM E-score
AGTTCGCG | inactive: -0.103
ATAAAGCG | inactive: 0.0105
CGTACGTC | inactive: 0.0832
AAATAGAC | inactive: 0.116
AGAGGTTG | inactive: -0.0274
GTACCATA | inactive: 0.208
GTCCAAAC | inactive: -0.0103
ACTCACAC | inactive: 0.00323
AACAGAGG | inactive: 0.0242
GCGAGGAA | inactive: -0.104
GGCTCCAC | inactive: -0.186
AGTCAAGG | inactive: -0.0408
ACACTTAC | inactive: 0.195
GCTCGAAC | inactive: 0.0469
ACGCAATA | ≥ 0.0579
GATGGTCC | inactive: -0.0416
CCAGGACA | inactive: 0.14
TATGTTGA | inactive: 0.288
GACGTCCA | inactive: -0.0398
ACGTTCTG | inactive: -0.0375
ACATTGCA | inactive: 0.189
CATGAAGC | inactive: 0.0221
AACGCCCG | inactive: -0.108
CGGTTAGA | inactive: -0.00782
CCCCGAGG | inactive: -0.218

Sequence | PBM E-score
AAACTTGT | inactive: 0.265
CGATCTCA | inactive: 0.0293
GGGCCGAA | inactive: -0.26
CTAGAACC | inactive: -0.0482
ATCCGCAT | inactive: 0.0355
TGAGAGCA | inactive: -0.0548
ACAGCGAA | ≥ 0.0905
ATCATTAA | inactive: 0.101
CCAGTTGC | inactive: -0.145
TGCCCCCA | inactive: -0.258
AACGAACC | inactive: 0.0454
AACCAATA | inactive: 0.0905
AAGTGTTG | inactive: 0.206
CCCCTCCG | inactive: -0.158
CCCCGGTC | inactive: -0.256
ACGAAGAC | inactive: -0.0171
CGCTCTGA | inactive: -0.1
AATCAATA | inactive: 0.16
CATTGGGA | inactive: 0.00347
GATCCATC | inactive: 0.00651
CATCAGCA | inactive: 0.0725
CGTGGCTA | inactive: -0.14
ACCGTTCG | inactive: -0.0339
CGCCGAGA | inactive: -0.224
CGATACAC | inactive: 0.16

Sequence | PBM E-score
CTTCGTCA | inactive: 0.0577
CCCGCCAC | inactive: -0.129
AAAGGGCG | inactive: -0.0884
ACACTGAC | inactive: 0.114
ATTTGAAC | inactive: 0.0964
ATAAATCC | inactive: 0.0377
CCCGATTC | inactive: -0.0132
AACAAAGT | ≥ 0.225
GATCTAAC | inactive: 0.0364
AATTTTCT | inactive: 0.0254
AACAGTCT | inactive: 0.0513
ACACGGGC | inactive: 0.0908
AGTACTCC | inactive: -0.0186
CGTCAGCA | inactive: -0.0975
AATATATG | inactive: 0.253
AAATCTAC | inactive: 0.143
ACGGGTGC | inactive: -0.104
GCTGCCTA | inactive: -0.157
CGGTAGTA | inactive: 0.166
GCTTGTGA | inactive: -0.02
CCAGTCTA | inactive: -0.115
CGCCTTTA | inactive: -0.145
CAATTATA | inactive: 0.154
CGGCACGA | inactive: -0.057
ACACCTAG | inactive: 0.0969

Sequence | PBM E-score
CATGTTCC | active: 0.409
GCGTGCTA | inactive: -0.0711
CTGCTCTA | inactive: -0.0278
ATAGATGG | inactive: -0.0161
ACCTGTCA | inactive: 0.136
CACCTATG | inactive: -0.0452
ATGTTCGC | inactive: 0.256
AAAGCGGT | inactive: -0.102
AGGTCCAC | inactive: -0.158
CAAGAGGC | inactive: -0.118
CCTTCGAC | inactive: -0.0335
GATCTCTA | inactive: -0.0307
CACGCTGC | inactive: -0.0283
ACTTAACG | inactive: 0.0465
CCTGATAC | inactive: 0.14
ACAAGCGA | inactive: 0.243
GAGCGGCC | inactive: -0.254
CCACTGCG | inactive: -0.194
ATCTCGTC | inactive: 0.004
AGCCCAAG | inactive: -0.198
AAAATAGT | inactive: 0.0994
AAATCTGT | inactive: 0.125
CAGTGTTC | inactive: 0.135
GACTGGAA | inactive: -0.102
AGTAAGAT | inactive: 0.145

Sequence | PBM E-score
CTCCTGGC | inactive: -0.163
AACTCTCA | inactive: -0.00437
AAATAGTG | inactive: 0.159
CTTACGGA | inactive: -0.0241
CGGAGAAG | inactive: -0.205
CCCACAAA | inactive: -0.0279
GGGTTGGA | inactive: -0.185
CATCAAAC | inactive: 0.143
CAGTGGGA | inactive: -0.0845
AGTCTTCG | inactive: -0.0737
GGGAACGA | inactive: -0.125
AATCGGAT | inactive: 0.114
CCAGTCGA | inactive: -0.0529
CAAAGGTC | inactive: -0.189
AGTACCCG | inactive: 0.0946
ACGGTTGA | inactive: 0.0784
ACAGACCT | inactive: 0.0819
GATCTACA | inactive: 0.145
ATCGAGCG | inactive: -0.0641
TCTACCAA | inactive: 0.0764
AGGGCAGA | inactive: -0.12
ACCCTGGA | inactive: -0.159
AATGCAAT | inactive: 0.0302
GGTTGTTA | active: 0.324
CGAACCAG | inactive: 0.02

Sequence | PBM E-score
CCCTGTCA | inactive: 0.129
GCGAGTAA | inactive: -0.0555
TCCCCAGA | inactive: -0.171
ATAGACCA | inactive: 0.00047
ATCACCGA | inactive: 0.117
TAAGTATA | inactive: 0.168
AATTCCCT | inactive: 0.0285
GGCACCAC | inactive: -0.122
CATTGCGC | inactive: -0.0634
AACTGTGC | inactive: 0.00366
CAAGCTCC | inactive: -0.113
ACCAGTGC | inactive: -0.019
CGGTAAGA | inactive: -0.116
AAGTGAGT | inactive: 0.0344
CCCACGGG | inactive: -0.26
TCAGAACA | inactive: 0.245
AAGGAAGG | inactive: 0.00353
GCTGTCAA | inactive: 0.057
CACTAGTC | inactive: 0.129
GTGCACTA | inactive: 0.0884
AGTGAATA | inactive: 0.135
GGCGCAAC | inactive: -0.19
AAAGTAAC | inactive: 0.0893
ACCTCTAG | inactive: -0.0769
AGTAATAC | inactive: 0.146

Sequence | PBM E-score
CGGCTGGA | inactive: -0.226
ACGCCCAA | inactive: -0.0625
AGTACATC | active: 0.342
ACAAAGTA | inactive: 0.188
ATATTGCC | inactive: 0.0197
AACACACC | inactive: 0.188
AGGCGCCC | inactive: -0.312
CGACAGTA | inactive: -0.0427
GAGAGAGA | inactive: -0.0674
CGTCATAC | inactive: 0.0986
AATTCGGC | inactive: -0.0352
GCCTTTAA | inactive: -0.0796
ATATGTGG | inactive: 0.182
CTGCGCGA | inactive: -0.0149
AGACAACT | inactive: 0.191
GCTTCGAA | inactive: -0.00964
GTGTAAGA | inactive: 0.224
ACCCCTTA | inactive: -0.0966
GGAACGAA | inactive: -0.0681
CTACCGTC | inactive: -0.156
CTAGAGAG | inactive: -0.125
GAGGTGTA | inactive: 0.152
CAAGGGTG | inactive: -0.0566
